Data from PMC11558135.
No constants are given. Whether binding was seen depends on the method and setting. Binding seen in cells or lysates may run through a third protein. Some results given as binding are weak or reduced against the parent protein; the word gives no strength. For part of these data: Tags and fused reporters may be left off the sequences shown.

Protein sequences, listed by entry. Tags and fused reporters are not part of them. Lines headed by an entry give the natural chain unless they say otherwise; changes in a name come on top. Chains listed by the source or under a name are the forms on record and can include a tag or linker. Residues count along the entry.
UniProt P62960: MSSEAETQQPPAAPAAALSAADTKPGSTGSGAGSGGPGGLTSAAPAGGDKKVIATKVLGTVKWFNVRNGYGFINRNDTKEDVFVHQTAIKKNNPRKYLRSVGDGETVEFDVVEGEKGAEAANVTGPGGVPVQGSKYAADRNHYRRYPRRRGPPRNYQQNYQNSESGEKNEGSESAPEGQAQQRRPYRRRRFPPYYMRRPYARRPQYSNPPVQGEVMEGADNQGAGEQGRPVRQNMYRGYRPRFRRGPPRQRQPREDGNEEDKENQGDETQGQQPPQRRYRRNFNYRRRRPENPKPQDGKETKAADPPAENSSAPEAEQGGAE
UniProt P67809: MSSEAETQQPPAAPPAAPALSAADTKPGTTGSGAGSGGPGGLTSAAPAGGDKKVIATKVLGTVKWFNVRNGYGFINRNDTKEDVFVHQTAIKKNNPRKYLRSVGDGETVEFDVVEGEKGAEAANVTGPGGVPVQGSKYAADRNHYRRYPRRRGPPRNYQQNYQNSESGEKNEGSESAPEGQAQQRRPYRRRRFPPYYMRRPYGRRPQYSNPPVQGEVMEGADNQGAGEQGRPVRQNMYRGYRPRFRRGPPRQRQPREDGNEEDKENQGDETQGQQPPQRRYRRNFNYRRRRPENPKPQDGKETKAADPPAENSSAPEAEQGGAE
YBX1-(Δ126-324aa)-Myc: residues 1-125 of P67809
YBX1-(Δ1-60aa)-Myc: residues 61-324 of P67809
YBX1-(Δ61-125aa)-Myc (P67809, form named): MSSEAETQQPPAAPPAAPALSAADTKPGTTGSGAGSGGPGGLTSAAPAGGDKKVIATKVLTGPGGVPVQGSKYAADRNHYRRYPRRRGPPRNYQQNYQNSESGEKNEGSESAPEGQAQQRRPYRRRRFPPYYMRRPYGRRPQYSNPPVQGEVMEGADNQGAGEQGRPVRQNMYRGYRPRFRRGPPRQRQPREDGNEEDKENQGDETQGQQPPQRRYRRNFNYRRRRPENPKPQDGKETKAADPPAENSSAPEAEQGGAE

Legend:
[1] = target: Y-box-binding protein 1 (YBX1), endogenous (mouse (endogenous in mouse spinal cord tissue; the species of the primary neurons is not stated)) (UniProt P62960); test: co-IP; endogenous proteins in spinal cord tissue lysate of mice after SCI surgery or sham surgery, magnetic beads, washed three times with 0.5% PBST
[2] = target: Y-box-binding protein 1 (YBX1), endogenous (mouse (endogenous in mouse spinal cord tissue; the species of the primary neurons is not stated)) (UniProt P62960); test: co-IP; endogenous proteins in primary neurons lysate, anti-YBX1 or anti-TRIM56 primary antibody, magnetic beads, washed three times with 0.5% PBST; neurons with or without OGD treatment
Myc-tagged YBX1 = Myc-tagged YBX1 (UniProt P67809); test: co-IP; HEK293T cells co-transfected with Flag-TRIM56 and Myc-YBX1 or its truncated mutants, lysate, anti-Flag or anti-Myc antibody, magnetic beads, washed three times with 0.5% PBST
YBX1-(Δ126-324aa)-Myc = YBX1-(Δ126-324aa)-Myc (UniProt P67809); test: as above
YBX1-(Δ1-60aa)-Myc = YBX1-(Δ1-60aa)-Myc (UniProt P67809); test: as above
YBX1-(Δ61-125aa)-Myc = YBX1-(Δ61-125aa)-Myc (UniProt P67809); test: as above

Row | binding [1] | binding [2] | binding (Myc-tagged YBX1) | binding (YBX1-(Δ126-324aa)-Myc) | binding (YBX1-(Δ1-60aa)-Myc) | binding (YBX1-(Δ61-125aa)-Myc) | Binder
1 | binds | binds | – | – | – | – | E3 ubiquitin ligase TRIM56, endogenous (protein, UniProt Q80VI1 1-734) MNSKVSSPTLLEALSSDFLACKICLEQLHTPKTLPCLHTYCQDCLAQLDIGGQVRCPECREIVPVPAEGVAAFKTNFFVNGLLDLVKARAPGDVHSGKPTCALCPLVGGKSSGGPATARCLDCADDLCQACADGHRCSRQTHKHRVVDLVGYRAGWYDEEARERQASQCPQHPGEALCFLCQPCSQLLCKDCRLGPHIDHPCLPLAEAVRSRKPGLEELLAGVDSNLVELEATRVAEKEALALLREQAASVGTQVEEAAERILKSLLAQKQEVLGQLRALVEAAEEATRERLTKIERQEQVAKAAAAFARRVLSLGLEAEILSLEGAITQRLRQLQDAPWTSGPTRCVLPQLELHPGLEDKNCHLLRLIFEEPKQSPKDSGKGGAGTQGGDEAQGQGDDRTKIGKQGGAQPLTPKEGKDQNPQEDDGVFIERGNRPNKKKKCKGRGKSVSREPSPILRPNLEGSGLLPRPVFSWSFPTRMPGDKRSPRITGLCPYGPQEILVADEQNRVLKRFSLNGDYKGTVQVPEGCSPCSVAALQNAVAFSANAKLYLVSPDGEIQWRRSLSLTQSSHAVAAMPCGDRVAVSVAGHVEVYKKDGSLATRFIPGGKASRGQRALVFLTTSPQGNFVGSDWQQNSVVFCDGLGQVIWEYKGPGLHGCQPGSVSVDKKGYIFLTLREVNKVVILDPKGSLLGDFLTAYHGLEKPRVTTMVDGKYLVVSLSNGTIHVFRVRFPDS
2 | – | – | binds | binds | no binding | no binding | Flag-tagged full-length TRIM56 (protein, UniProt Q9BRZ2 1-755) MVSHGSSPSLLEALSSDFLACKICLEQLRAPKTLPCLHTYCQDCLAQLADGGRVRCPECRETVPVPPEGVASFKTNFFVNGLLDLVKARACGDLRAGKPACALCPLVGGTSTGGPATARCLDCADDLCQACADGHRCTRQTHTHRVVDLVGYRAGWYDEEARERQAAQCPQHPGEALRFLCQPCSQLLCRECRLDPHLDHPCLPLAEAVRARRPGLEGLLAGVDNNLVELEAARRVEKEALARLREQAARVGTQVEEAAEGVLRALLAQKQEVLGQLRAHVEAAEEAARERLAELEGREQVARAAAAFARRVLSLGREAEILSLEGAIAQRLRQLQGCPWAPGPAPCLLPQLELHPGLLDKNCHLLRLSFEEQQPQKDGGKDGAGTQGGEESQSRREDEPKTERQGGVQPQAGDGAQTPKEEKAQTTREEGAQTLEEDRAQTPHEDGGPQPHRGGRPNKKKKFKGRLKSISREPSPALGPNLDGSGLLPRPIFYCSFPTRMPGDKRSPRITGLCPFGPREILVADEQNRALKRFSLNGDYKGTVPVPEGCSPCSVAALQSAVAFSASARLYLINPNGEVQWRRALSLSQASHAVAALPSGDRVAVSVAGHVEVYNMEGSLATRFIPGGKASRGLRALVFLTTSPQGHFVGSDWQQNSVVICDGLGQVVGEYKGPGLHGCQPGSVSVDKKGYIFLTLREVNKVVILDPKGSLLGDFLTAYHGLEKPRVTTMVDGRYLVVSLSNGTIHIFRVRSPDS
